Data reported in ChEMBL document CHEMBL4888484, “Replenishing the malaria drug discovery pipeline: Screening and hit evaluation of the MMV Hit Generation Library 1 (HGL1) against asexual blood stage Plasmodium falciparum ,using a nano luciferase reporter read-out” (2022).
The campaign covered roughly 150,000 compounds. About 540 (0.36%) showed an effect of 50% or more. This is one part of the list.

system: Plasmodium falciparum; assay: Primary screen in NF54 nanoGlo assay, in single point, at 2uM, 72h; a lower Z score goes with more inhibition; assay type: functional, Erythrocyte; settings: timepoint 72 hour

SMILES | % Inhibition | Z score
CC(=O)N1C[C@@H]2C[C@@H](O)CN2C2(CN(Cc3ccccc3F)C2)C1 | -10% | 1.51
Cc1ccc(-c2nnc(CCC(=O)NCC(C)(C)CN(C)C)o2)s1 | -10% | 1.24
CC(C)CC[C@]1(C)NC(=O)N(Cc2nnc(-c3ccc(Br)cc3)o2)C1=O | -4% | 0.53
Cc1cc(C)c(NC(=O)CCN2CCC[C@H]2c2nc(-c3ccncc3)no2)c(C)c1 | 0% | 0.02
CCCO[C@H]1CCCN(c2noc(C3CC3)n2)C1 | 0% | 0.07
COCCC(=O)Nc1nn(-c2cccc(F)c2)c2cccc(N3CCOC3=O)c12 | -3% | 0.41
CCOC(=O)[C@H](NCC(=O)Nc1cccc(N2CCCC2=O)c1)c1cccc2ccccc12 | -18% | 2.06
CC(C)=CCC/C(C)=C/CN1CCc2[nH]cnc2[C@@H]1C(=O)O | -9% | 1.83
Cc1cc(CC(=O)N2CCC([C@H](O)c3cccs3)CC2)on1 | -3% | 0.47
FC(F)Cn1cc(NCc2noc3c2COCC3)cn1 | -9% | 1.55
CCCn1nccc1-c1nccc(OCC)n1 | -14% | 1.36
c1cncc(CN2CCN(c3ncnc4[nH]ncc34)CC2)c1 | -11% | 0.91
CCO[C@H]1COC[C@@H]1Nc1nnc2ccccn12 | -8% | 1.63
Cc1nn(-c2ccc(C#N)cc2)c(NC(=O)CC2CCC(C)C2)c1C (centres undefined) | 2% | -0.34
c1ccc(CCN2C[C@@H]3CC[C@H]2CN(Cc2cscn2)C3)cc1 | 0% | 0.04
Cc1cc(C(=O)N2Cc3cccnc3C2)ccc1OC(F)(F)F | -8% | 0.96
Cc1c([C@H]2CC2(C)C)nc(N)c(C#N)c1-c1ccc(CO)o1 | 0% | 0.04
O=C([C@H]1C[C@H]2C=C[C@@H]1C2)N(Cc1cccnc1)Cc1ccc2c(c1)OCO2 | 4% | -0.49
CC(C)c1nnc(CS(=O)(=O)Cc2ccn(-c3ccccc3)n2)o1 | -13% | 1.56
N#Cc1ccc(OCCOc2cccc(-c3nnco3)c2)cc1 | -11% | 1.44
CCc1ccc(C(=O)N(Cc2ccncc2)Cc2cccnc2)o1 | -6% | 0.92

SMILES | % Inhibition | Z score
CC(C)(C)OC(=O)N1C[C@@H]2C[C@H]1C(=O)NC[C@H]1O[C@H](CCOc3ccccc3C(=O)N2)CC[C@@H]1O | 25% | -2.86
O=C(NCCc1cnn(-c2ccccc2)c1)c1ccncc1O | -11% | 1.51
CC(C)=CCN1C(=O)[C@@H]2CC[C@H]1CN(C(=O)c1ccc(C)c(Cl)c1)C2 | -21% | 2.24
CC1(C)Cc2cc(C(=O)N[C@H]3CCOC34CCOCC4)ccc2O1 | -10% | 1.56
CC(C)(C)C1CCN(S(=O)(=O)N[C@@H]2C=C[C@H](CO)C2)CC1 | -3% | 0.28
Cc1ncsc1C(=O)OCc1ccccc1 | 2% | -0.22
CC[C@H](O)c1cc2n(n1)CCN(c1ccc(-c3nccn3C)nn1)C2 | -13% | 2.32
O=C(Nc1ccc(-c2cc[nH]n2)cc1)C1CCC1 | -21% | 1.9
O=C(NCCN1CCOCC1)C1Cc2cc(C(F)(F)F)ccc2N2CCN(C(=O)c3ccco3)CC12 (centres undefined) | -9% | 1.23
N#Cc1ccc(N2CCN(S(=O)(=O)c3cc(Cl)cnc3N)CC2)cn1 | -8% | 1.18
CC1=NO[C@@H](CNC(=O)c2cccc(C)c2)C1 | -1% | 0.12
COC(=O)[C@@]1(C)CCN(C(=O)NCCc2c[nH]c3ccc(F)cc23)C1 | -13% | 1.81
COc1cc(-c2c(C#N)c(N)nc(C)c2-c2ccccc2)cc(OC)c1OC | 0% | 0.01
Cc1cc2c(cc1S(=O)(=O)N1CCC[C@H](C(=O)N3CC(=O)Nc4ccccc43)C1)OCC(=O)N2 | -11% | 2.12
O=C(O)CCc1cc2n(n1)CCN(C[C@@H]1CC=CCC1)C2 | 1% | -0.2
CCCC[C@H](C)C(=O)Nc1ncc(C#N)s1 | -9% | 1.36
OC[C@@]1(CCOc2ccccc2)CCCN(c2ncnc3[nH]cnc23)C1 | -4% | 0.76
Cc1c(C(=O)NCC(=O)N2CCCC2)[nH]c2c(F)cccc12 | -16% | 2.03
CC[C@H]1C(=O)NCCCN1Cc1cc(O)ccc1Cl | -5% | 0.76
Cc1n[nH]c(C)c1NC(=O)Nc1cccc(N(C)C(C)C)c1 | -3% | 0.47
COc1cccc([C@@H](NCc2c3c(nn2C)CCCC3)C2CC2)c1 | 0% | 0.02
